Target: recombinant human PD-L1 (human)

Row | Binder | Kd [pM] | koff [s⁻¹] | kon [M⁻¹ s⁻¹]
1 | Janus #3 (other) light: QSALTQPASVSGSPGQSITISCTGTSSDVGGYNYVSWYQQHPGKAPKLMIYDVSNRPSGVSNRFSGSKSGNTASLTISGLQAEDEADYYCSSYTSSSTRVFGTGTKVTVLGQPKANPTVTLFPPSSEELQANKATLVCLISDFYPGAVTVAWKADGSPVKAGVETTKPSKQSNNKYAASSYLSLTPEQWKSHRSYSCQVTHEGSTVEKTVAPTECS heavy: EVQLLESGGGLVQPGGSLRLSCAASGFTFSSYIMMWVRQAPGKGLEWVSSIYPSGGITFYADTVKGRFTISRDNSKNTLYLQMNSLRAEDTAVYYCARIKLGTVTTVDYWGQGTLVTVSSASTKGPSVFPLAPSSKSTSGGTAALGCLVKDYFPEPVTVSWNSGALTSGVHTFPAVLQSSGLYSLSSVVTVPSSSLGTQTYICNVNHKPSNTKVDKKV[human IgG1 Fc with T366Y (EU numbers) not given here] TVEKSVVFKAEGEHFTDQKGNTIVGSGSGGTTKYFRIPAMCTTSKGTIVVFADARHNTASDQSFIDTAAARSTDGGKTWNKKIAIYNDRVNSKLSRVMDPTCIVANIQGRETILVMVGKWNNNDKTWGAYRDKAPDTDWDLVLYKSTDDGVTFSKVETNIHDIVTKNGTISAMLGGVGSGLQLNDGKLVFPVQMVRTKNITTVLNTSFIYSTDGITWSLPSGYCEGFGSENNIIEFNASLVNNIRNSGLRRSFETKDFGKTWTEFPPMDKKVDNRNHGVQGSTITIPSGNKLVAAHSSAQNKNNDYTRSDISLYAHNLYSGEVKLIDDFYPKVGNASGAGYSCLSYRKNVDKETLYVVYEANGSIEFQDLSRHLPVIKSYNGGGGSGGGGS[human IgG1 Fc with Y407T (EU numbers) not given here]SGGGGSHHHHHHHH | 556 | 0.000188 | 358000
2 | Bunk #2 (other) light: QSALTQPASVSGSPGQSITISCTGTSSDVGGYNYVSWYQQHPGKAPKLMIYDVSNRPSGVSNRFSGSKSGNTASLTISGLQAEDEADYYCSSYTSSSTRVFGTGTKVTVLGQPKANPTVTLFPPSSEELQANKATLVCLISDFYPGAVTVAWKADGSPVKAGVETTKPSKQSNNKYAASSYLSLTPEQWKSHRSYSCQVTHEGSTVEKTVAPTECS heavy: EVQLLESGGGLVQPGGSLRLSCAASGFTFSSYIMMWVRQAPGKGLEWVSSIYPSGGITFYADTVKGRFTISRDNSKNTLYLQMNSLRAEDTAVYYCARIKLGTVTTVDYWGQGTLVTVSSASTKGPSVFPLAPSSKSTSGGTAALGCLVKDYFPEPVTVSWNSGALTSGVHTFPAVLQSSGLYSLSSVVTVPSSSLGTQTYICNVNHKPSNTKVDKKV[human IgG1 Fc with T366Y (EU numbers) not given here]GGGGSGGGGSGGGGSQSALTQPASVSGSPGQSITISCTGTSSDVGGYNYVSWYQQHPGKAPKLMIYDVSNRPSGVSNRFSGSKSGNTASLTISGLQAEDEADYYCSSYTSSSTRVFGTGTKVTVLGQPKAGGGGSGGGGSGGGGSEVQLLESGGGLVQPGGSLRLSCAASGFTFSSYIMMWVRQAPGKGLEWVSSIYPSGGITFYADTVKGRFTISRDNSKNTLYLQMNSLRAEDTAVYYCARIKLGTVTTVDYWGQGTLVTVSS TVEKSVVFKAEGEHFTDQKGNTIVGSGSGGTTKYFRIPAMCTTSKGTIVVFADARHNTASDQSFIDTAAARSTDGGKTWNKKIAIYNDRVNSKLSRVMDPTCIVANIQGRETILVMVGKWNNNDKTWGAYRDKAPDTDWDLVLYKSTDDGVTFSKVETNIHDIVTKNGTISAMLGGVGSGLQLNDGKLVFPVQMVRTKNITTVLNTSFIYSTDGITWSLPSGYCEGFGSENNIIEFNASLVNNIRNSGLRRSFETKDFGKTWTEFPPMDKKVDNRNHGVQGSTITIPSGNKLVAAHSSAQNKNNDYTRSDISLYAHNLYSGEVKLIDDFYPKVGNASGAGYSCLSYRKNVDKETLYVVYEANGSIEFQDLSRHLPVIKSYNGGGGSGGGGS[human IgG1 Fc with Y407T (EU numbers) not given here]SGGGGSHHHHHHHH | 944 | 0.000273 | 324000
